Structures are written as SMILES. In all, about 110,000 compounds were measured (“z-score”: median about -0.1, highest 2% from about 2 on). Some of the results follow. Calls of active or inactive are those of the source.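 The calls were made as follows: active = z-score in the third read window above 3 or below -3; inactive = the rest.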

The experiment addresses Metabotropic glutamate receptor 8 (Rattus norvegicus) (UniProt P70579). Description: rat mGluR8 modulators via GIRK flux, primary screen, cell-based, thallium flux, HTS (AID 488969). The note with it: HEK293 rat mGluR8, GIRK (G protein-gated inwardly rectifying potassium channel) thallium flux, FluoZin2; at 10 µM; stronger effect = higher value; submaximal glutamate (EC20) added with thallium.
Sequence of UniProt P70579 (P70579 whole entry, looked up): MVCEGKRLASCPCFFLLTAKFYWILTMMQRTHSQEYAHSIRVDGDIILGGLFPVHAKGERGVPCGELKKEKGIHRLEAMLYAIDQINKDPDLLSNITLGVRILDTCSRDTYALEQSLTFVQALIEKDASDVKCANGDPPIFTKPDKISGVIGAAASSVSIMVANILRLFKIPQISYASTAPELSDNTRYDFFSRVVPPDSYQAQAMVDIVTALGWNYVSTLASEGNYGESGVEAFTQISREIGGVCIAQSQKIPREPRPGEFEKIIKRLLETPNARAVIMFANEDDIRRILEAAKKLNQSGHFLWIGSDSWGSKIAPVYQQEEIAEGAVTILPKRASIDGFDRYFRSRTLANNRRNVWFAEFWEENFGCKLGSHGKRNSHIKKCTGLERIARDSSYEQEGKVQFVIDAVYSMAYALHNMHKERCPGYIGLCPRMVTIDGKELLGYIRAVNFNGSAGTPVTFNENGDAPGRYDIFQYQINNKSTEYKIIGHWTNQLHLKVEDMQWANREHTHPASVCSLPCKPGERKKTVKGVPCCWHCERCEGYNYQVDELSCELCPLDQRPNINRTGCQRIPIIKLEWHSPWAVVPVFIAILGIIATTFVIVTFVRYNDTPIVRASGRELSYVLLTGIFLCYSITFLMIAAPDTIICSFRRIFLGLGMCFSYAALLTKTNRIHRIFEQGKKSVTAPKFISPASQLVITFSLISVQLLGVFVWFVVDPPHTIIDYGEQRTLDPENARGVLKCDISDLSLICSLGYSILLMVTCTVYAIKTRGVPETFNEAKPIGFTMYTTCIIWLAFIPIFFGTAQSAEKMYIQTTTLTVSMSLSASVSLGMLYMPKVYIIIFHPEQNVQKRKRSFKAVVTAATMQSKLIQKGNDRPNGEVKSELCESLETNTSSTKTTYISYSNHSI
`COc1ccc(N=CC2=C(O)CC(c3ccccc3)CC2=O)c(OC)c1` (centres undefined) showed a z-score of -0.641.
In the case of `Cc1onc(-c2ccccc2Cl)c1C(=O)Nc1nnc(-c2ccc(F)cc2)s1`, the z-score was determined as 0.78.
Turning to `COc1ccccc1-n1nnnc1SCc1cc2c(cc1Br)OCO2`, the z-score is 0.011.
For the compound `CCn1cc(SCC(=O)Nc2cc(C)on2)c2ccccc21`, the z-score was -0.0523.
In the case of `CCCCc1noc2c1/C(=N\O)CC(c1ccccc1)C2` (centres undefined) it was 0.279; in that of `C[C@@H](C(=O)N[C@H](C(=O)O)c1ccccc1)n1nnc2ccccc2c1=O`, -0.457.
Turning to `CN1CCN(C(=O)/C=C\C(=O)O)CC1`, the z-score is -0.187.
Regarding `CCC(CC)C(=O)Nc1cccc(/C(C)=N\NC(=O)c2ccc(C)s2)c1`, the z-score is -0.252.
As for `CCCCCCN1N=C(C)C(C(=O)c2ccc(Cl)cc2)C1=O` (centres undefined), the z-score turned out to be 0.521.
For `CCOc1ccc(NC(=O)CCS(=O)(=O)c2ccc3c(c2)CCCN3C(=O)CC)cc1`, the z-score was -0.371.
In turn, `COc1cc2c(cc1NC(=O)COc1ccc3ccccc3c1)oc1ccccc12` displayed a z-score of -0.183.
In turn, `O=C(NC(=S)NCc1ccc2c(c1)OCO2)c1ccccc1` yielded a z-score of 1.1.
In the case of `Cn1c(=O)c2c(nc(SCCN3CCOCC3)n2Cc2ccccc2)n(C)c1=O` it was 0.168.
In turn, `Cc1ccc(CN2CCN(/N=C/c3ccco3)CC2)c(C)c1` registered a z-score of -0.87.
`CCCn1c(N)c(C(=O)CSc2nnc(Cc3ccccc3)o2)c(=O)n(C)c1=O` registered a z-score of 0.262.
In turn, `O=C(OCCN1CCN(c2ncc(C(F)(F)F)cc2Cl)CC1)c1ccc(F)cc1` yielded a z-score of 0.0101.
For the compound `CCn1c(CC(=O)Nc2ccc(Cl)c(Cl)c2)nnc1SCc1ccc(Cl)cc1`, the z-score stood at 0.171.
For `COc1ccc(NC(=O)CSc2ncn(-c3ccccc3)n2)cc1Cl`, the z-score was -0.728.
With `NC(=O)c1ccccc1NC(=S)NC(=O)CCc1ccccc1`, the z-score is -0.237.
`O=C(NCc1ccc(F)cc1)C(=O)NCC1OCCN1C(=O)c1cccs1` (centres undefined) showed a z-score of -0.139.
On to `Cc1cc(C)n2cc(CSc3nc4ccccc4[nH]3)nc2n1`, for which the z-score is -0.0877.
In the case of `O=C(COc1ccccc1)Nc1sc2c(c1C(=O)NCc1cccnc1)CCCC2` it was -0.764.
Take `Cc1nonc1NC(=O)c1ccccc1Br`: the z-score amounted to 0.549.
In the case of `O=C(NNC(=O)C1CC1c1ccccc1)Nc1cccc(Cl)c1` (centres undefined) it was -0.494; in that of `C/C(=N/NC(=O)CSCc1ccc(Cl)cc1)c1cccc(NC(=O)c2ccccc2)c1`, -0.135.
The compound `CCOC(=O)N1CCC(NC(=O)CCc2nc(-c3ccccc3F)no2)CC1` returned a z-score of -0.079.
For the compound `Fc1c(F)c(F)c(CSc2nc3ccccc3[nH]2)c(F)c1F`, the z-score is -0.953.
Regarding `CSc1nc(Sc2ccccc2)c2ccccc2n1`, the z-score is active: 4.56.
In the case of `CC1(C(=O)N(c2ccccc2)C(C(=O)NC2CCCC2)c2ccccn2)CC(=O)N=C2C=CC=CN21` (centres undefined) it was -0.234; in that of `C1CCN(c2c3c(nc4nnnn24)CCCC3)CC1`, -0.00581; in that of `CS(=O)(=O)N1CCc2cc(S(=O)(=O)N3CCN(Cc4ccc5c(c4)OCO5)CC3)ccc21`, 0.0585.
The compound `Nc1cc(-c2ccc(Cl)cc2)nn1S(=O)(=O)c1ccccc1` displayed a z-score of -0.106.
In turn, `CCOc1ccc(C(CC(=O)O)NC(=O)c2ccco2)cc1` (centres undefined) came in with a z-score of -0.274.
Consider `Cc1ccc(N(CC(=O)NCc2ccco2)S(=O)(=O)c2ccccc2)cc1`, for which the z-score turned out to be 0.374.
The compound `COc1ccc(-c2nc(NC(=O)c3ccc(OCC(=O)N4CCOCC4)c(OC)c3)sc2C)cc1` yielded a z-score of -0.218.
As for `Cc1ccccc1N(CC(=O)NCC1CCCO1)C(=O)C1(C)CC(=O)N=C2C=CC=CN21` (centres undefined), the z-score was -0.358.
As for `CCOC(=O)c1c(C2CC2)csc1NC(=O)COC(=O)c1ccc[n+]([O-])c1`, the z-score is -0.472.
With `COC(=O)Nc1ccc(S(=O)(=O)N2CCCC(C(=O)Nc3cccc4c3OCCO4)C2)cc1` (centres undefined), the z-score was -1.14.
As for `Cc1ccc2cc(CN(CC3CCCO3)C(=S)NCc3ccco3)c(=O)[nH]c2c1C` (centres undefined), the z-score is -0.303.
In the case of `Cc1ccccc1OCCNC(=O)CNC(=O)c1ccccc1O` it was 0.335; in that of `C=CCn1c(-c2cc(OC)c(OC)c(OC)c2)n[nH]c1=S`, 0.16; in that of `Cc1ccc2c(c1)c1c3n2CC(=C2C(=O)OC(C)(C)OC2=O)NC3CCC1` (centres undefined), -0.111.
In the case of `CCOc1ccccc1OCCOc1cccc(C(F)(F)F)c1` it was -0.315.
On to `CC1CCC2(CC1)NC(=O)N(CC(=O)c1ccc[nH]1)C2=O` (centres undefined), for which the z-score came to 0.214.
In the case of `Cc1ccc(C)c(NC(=O)Cc2csc(-c3ccccc3)n2)c1` it was -0.0885.
In turn, `CCC(=O)Nc1cccc(NC(=S)NC(=O)c2cccs2)c1` gave a z-score of -0.0637.
With `O=C(CNc1ccccc1)N/N=C/c1cn(-c2ccccc2)nc1-c1ccccc1`, the z-score was -0.0559.
In the case of `CCNC(=O)c1c(N)sc2c1CCCCC2` it was -0.0864.
Take `COc1ccnc(N2CCN(c3cccc(C(F)(F)F)c3)CC2)c1C#N`: the z-score was -0.298.
The compound `CN1CCN(c2nc3c(c(=O)[nH]c(=O)n3C)n2CCCSc2ncccn2)CC1` returned a z-score of -0.549.
`CCc1ccc2[nH]c(=O)c(C(c3nnnn3Cc3ccco3)N3CCC(C)CC3)cc2c1` (centres undefined) showed a z-score of -0.27.
In turn, `COc1cc(/C=C(\C#N)c2[nH]nc(N)c2C#N)cc(OC)c1O` showed a z-score of 0.353.
In the case of `CN1CCN(NC(=O)c2ccccc2F)CC1` it was -0.0659; in that of `COc1ccc2c(c1)cc1n2CCN2CCCN=C12`, -0.172.
With `CC(C)C(=O)N1CCN(c2ccc(NC(=O)c3cccs3)cc2)CC1`, the z-score is -0.0556.
For the compound `Cn1nc([N+](=O)[O-])nc1N1CCN(c2ccc(F)cc2)CC1`, the z-score was -0.0347.
Consider `Cc1ccccc1N1CCN(C(=O)c2ccccc2NC(=O)/C=C\C(=O)O)CC1`, for which the z-score was -0.319.
In the case of `O=C(CN1CCC(c2nc3ccccc3s2)CC1)NCc1cccs1` it was -0.352.
Consider `Clc1cccc(/C=N/Nc2nnc(Cl)c3ccccc23)c1`, for which the z-score worked out at 0.178.
For the compound `COC(=O)/C=C/C(=O)N1CCN(c2ccccc2C)CC1`, the z-score was 0.352.
The compound `CC1CCC2C(=O)N(c3ccc(S(=O)(=O)c4ccccc4)cc3)C(=O)C2C1` (centres undefined) had a z-score of -0.325.
With `COc1cc(NC(=O)CSc2nnc3n2C(C)(C)Cc2ccccc2-3)cc(OC)c1`, the z-score stood at 0.158.
In the case of `O=C(CSc1nnc(Cc2cccs2)n1Cc1ccco1)Nc1cccc(Cl)c1` it was -0.645; in that of `COCCN1C(=O)C(=O)/C(=C(/O)c2cccc(OC)c2)C1c1ccc(C)o1` (centres undefined), -0.575; in that of `CN1CCN(CC(=O)N2c3ccccc3C(C)(c3ccccc3)CC2(C)C)CC1` (centres undefined), active: 3.59.
Compound `CN1C(=O)CC(N2CCN(C(=O)c3ccccc3)CC2)C1=O` (centres undefined) had a z-score of 0.26.
Regarding `CCc1nnc(NC(=O)c2ccc3c(c2)C(=O)N(CC(C)C)C3=O)s1`, the z-score is -0.103.
`CC(C)c1nnc(NC(=O)C2CCN(c3cnccn3)CC2)s1` yielded a z-score of 0.893.
In turn, `Cc1nn(-c2cc(N3CCCCC3)ccc2N)c(=O)c2ccccc12` returned a z-score of -0.187.

The values above are taken from PubChem BioAssay AID488969 (Vanderbilt High Throughput Screening Facility, 2010).
